Results published in article PMC12528901.
Results are given in words; binding and its absence hold for the method and conditions named. Binding seen in cells or lysates may run through a third protein. Some results given as binding are weak or reduced against the parent protein; the word gives no strength. For some of these results: Sequences can lack the tags named with a protein.

The chains behind the UniProt entries cited, without tags or fusion partners. Where a name states a change or a piece, a line headed by the entry shows the natural chain unless it says otherwise. A line that says so, or that is headed by a name, gives the form on record, which may keep a tag or linker.
UniProt Q8VDZ4: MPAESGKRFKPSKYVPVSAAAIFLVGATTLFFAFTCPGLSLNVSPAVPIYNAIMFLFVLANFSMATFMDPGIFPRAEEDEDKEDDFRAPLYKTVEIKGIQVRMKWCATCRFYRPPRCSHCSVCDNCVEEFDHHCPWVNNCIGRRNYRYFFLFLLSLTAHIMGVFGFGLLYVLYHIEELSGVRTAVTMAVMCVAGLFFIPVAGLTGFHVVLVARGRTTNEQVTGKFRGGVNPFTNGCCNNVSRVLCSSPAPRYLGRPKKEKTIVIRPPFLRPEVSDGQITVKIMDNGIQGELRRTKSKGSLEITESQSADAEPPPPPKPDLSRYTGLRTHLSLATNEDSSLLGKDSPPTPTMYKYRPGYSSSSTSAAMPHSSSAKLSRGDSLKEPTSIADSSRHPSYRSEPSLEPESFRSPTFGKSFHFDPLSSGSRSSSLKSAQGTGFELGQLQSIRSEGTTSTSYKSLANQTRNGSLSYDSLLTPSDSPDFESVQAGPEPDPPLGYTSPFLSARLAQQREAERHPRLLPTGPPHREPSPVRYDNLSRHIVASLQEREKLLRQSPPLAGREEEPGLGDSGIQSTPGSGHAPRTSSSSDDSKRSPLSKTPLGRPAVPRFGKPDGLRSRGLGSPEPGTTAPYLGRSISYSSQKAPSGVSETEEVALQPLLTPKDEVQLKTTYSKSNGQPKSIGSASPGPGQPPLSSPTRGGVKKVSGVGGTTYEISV
HA-Zdhhc5^RNAR (mouse Zdhhc5 Tyr146Ala) (Q8VDZ4, form named): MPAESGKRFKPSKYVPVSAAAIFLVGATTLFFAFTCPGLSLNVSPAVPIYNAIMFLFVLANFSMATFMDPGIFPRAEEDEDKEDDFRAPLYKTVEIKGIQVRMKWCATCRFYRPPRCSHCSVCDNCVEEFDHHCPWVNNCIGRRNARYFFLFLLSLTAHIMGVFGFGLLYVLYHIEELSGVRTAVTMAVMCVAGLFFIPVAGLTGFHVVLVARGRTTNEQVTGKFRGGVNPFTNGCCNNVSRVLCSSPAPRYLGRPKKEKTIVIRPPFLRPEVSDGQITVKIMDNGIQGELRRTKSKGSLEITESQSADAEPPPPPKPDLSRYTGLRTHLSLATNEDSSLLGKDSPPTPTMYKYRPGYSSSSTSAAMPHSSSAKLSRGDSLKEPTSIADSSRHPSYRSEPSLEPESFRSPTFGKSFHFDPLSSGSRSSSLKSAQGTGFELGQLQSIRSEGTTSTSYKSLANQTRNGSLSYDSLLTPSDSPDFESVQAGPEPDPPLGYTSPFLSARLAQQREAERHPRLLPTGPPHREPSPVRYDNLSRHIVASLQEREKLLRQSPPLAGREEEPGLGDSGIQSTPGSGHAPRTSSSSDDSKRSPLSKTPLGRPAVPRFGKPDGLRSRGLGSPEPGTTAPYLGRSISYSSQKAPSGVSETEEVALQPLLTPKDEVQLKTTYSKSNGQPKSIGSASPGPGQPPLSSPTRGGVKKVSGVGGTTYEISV
HA-Zdhhc5^RNFR (mouse Zdhhc5 with RNYR changed to RNFR) (Q8VDZ4, form named): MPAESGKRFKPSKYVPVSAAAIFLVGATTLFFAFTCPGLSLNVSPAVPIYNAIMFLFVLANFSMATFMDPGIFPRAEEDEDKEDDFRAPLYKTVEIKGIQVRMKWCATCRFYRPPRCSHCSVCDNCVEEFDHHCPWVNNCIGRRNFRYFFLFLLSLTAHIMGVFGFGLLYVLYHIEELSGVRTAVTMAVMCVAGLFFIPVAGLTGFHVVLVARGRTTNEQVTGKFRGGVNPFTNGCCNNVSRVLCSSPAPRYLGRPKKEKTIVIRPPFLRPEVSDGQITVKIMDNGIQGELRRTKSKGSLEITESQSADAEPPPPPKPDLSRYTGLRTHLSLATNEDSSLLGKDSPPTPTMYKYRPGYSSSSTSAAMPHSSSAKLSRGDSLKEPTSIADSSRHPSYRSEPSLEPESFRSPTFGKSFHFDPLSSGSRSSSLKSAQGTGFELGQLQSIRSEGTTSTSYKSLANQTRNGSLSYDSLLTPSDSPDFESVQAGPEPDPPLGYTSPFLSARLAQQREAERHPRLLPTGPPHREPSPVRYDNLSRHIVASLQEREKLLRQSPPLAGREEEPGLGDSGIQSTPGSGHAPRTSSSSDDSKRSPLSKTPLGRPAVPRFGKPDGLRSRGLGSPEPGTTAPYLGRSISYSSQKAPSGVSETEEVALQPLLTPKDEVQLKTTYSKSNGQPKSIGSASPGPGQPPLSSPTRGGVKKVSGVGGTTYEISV
UniProt Q80TN5: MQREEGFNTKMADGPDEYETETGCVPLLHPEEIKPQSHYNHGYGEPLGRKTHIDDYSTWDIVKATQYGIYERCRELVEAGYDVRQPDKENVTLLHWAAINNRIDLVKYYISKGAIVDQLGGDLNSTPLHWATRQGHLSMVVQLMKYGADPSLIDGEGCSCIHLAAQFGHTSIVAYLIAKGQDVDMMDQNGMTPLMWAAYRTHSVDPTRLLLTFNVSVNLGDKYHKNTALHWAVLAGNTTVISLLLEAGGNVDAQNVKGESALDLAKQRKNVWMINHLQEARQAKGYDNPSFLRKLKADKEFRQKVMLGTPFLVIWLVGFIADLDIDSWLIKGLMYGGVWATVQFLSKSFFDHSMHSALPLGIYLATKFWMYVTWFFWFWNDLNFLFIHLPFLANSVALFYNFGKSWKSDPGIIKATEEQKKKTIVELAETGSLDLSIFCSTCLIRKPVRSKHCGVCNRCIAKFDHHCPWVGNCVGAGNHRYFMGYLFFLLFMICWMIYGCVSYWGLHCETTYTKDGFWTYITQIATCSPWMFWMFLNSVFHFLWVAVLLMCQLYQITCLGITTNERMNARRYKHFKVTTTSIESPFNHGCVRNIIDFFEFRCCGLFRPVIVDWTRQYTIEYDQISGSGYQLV
UniProt Q7Z5G4: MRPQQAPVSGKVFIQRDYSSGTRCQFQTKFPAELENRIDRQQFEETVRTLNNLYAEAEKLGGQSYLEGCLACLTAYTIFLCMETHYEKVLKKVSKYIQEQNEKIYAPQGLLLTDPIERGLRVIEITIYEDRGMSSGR

Experiments:
Test in all cases: co-IP; HA-tagged mouse Zdhhc proteins transfected into 293T ZDHHC5 KO and control cells; lysis in 50 mM Tris-HCl pH 7.4, 150 mM NaCl, 2 mM EDTA, 1% DDM; anti-HA magnetic beads overnight at 4 °C; washes in TBS with 0.5% DDM; blots for endogenous GOLGA7 or ZDHHC9
[1] = target: T1, HA-tagged mouse Zdhhc1 (mouse) (UniProt Q8R0N9)
T1 sequence: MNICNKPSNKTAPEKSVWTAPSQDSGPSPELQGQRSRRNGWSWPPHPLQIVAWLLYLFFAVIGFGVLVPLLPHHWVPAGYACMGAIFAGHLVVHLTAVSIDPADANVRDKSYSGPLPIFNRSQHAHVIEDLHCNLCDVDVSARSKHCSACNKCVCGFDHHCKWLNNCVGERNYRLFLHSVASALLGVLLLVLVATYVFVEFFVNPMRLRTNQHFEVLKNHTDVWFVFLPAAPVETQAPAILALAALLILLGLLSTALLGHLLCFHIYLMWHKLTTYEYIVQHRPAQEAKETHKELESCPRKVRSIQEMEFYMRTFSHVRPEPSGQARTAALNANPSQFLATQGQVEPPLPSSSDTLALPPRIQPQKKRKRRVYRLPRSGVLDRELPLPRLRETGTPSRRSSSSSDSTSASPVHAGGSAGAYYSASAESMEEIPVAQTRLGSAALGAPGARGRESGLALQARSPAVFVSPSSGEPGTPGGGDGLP

[2] = target: T2, Zdhhc19^RNYR (mouse Zdhhc19 with the RNYR motif and flanking residues installed) (mouse) (UniProt Q810M5)
T2 sequence: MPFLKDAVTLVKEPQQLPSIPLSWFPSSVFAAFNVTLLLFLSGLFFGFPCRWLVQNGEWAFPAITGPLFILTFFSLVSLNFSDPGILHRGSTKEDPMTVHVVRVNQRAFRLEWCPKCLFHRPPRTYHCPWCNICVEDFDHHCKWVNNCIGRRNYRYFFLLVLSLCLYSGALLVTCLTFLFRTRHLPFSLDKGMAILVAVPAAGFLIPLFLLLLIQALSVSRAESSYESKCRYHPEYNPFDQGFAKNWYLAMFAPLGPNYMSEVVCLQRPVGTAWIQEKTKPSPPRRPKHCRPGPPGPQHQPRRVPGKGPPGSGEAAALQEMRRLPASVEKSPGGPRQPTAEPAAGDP

[3] = target: HA-Zdhhc5^RNAR (mouse Zdhhc5 Tyr146Ala) (mouse) (UniProt Q8VDZ4)
[4] = target: T3, HA-tagged mouse Zdhhc25 (mouse) (UniProt Q810M4)
T3 sequence: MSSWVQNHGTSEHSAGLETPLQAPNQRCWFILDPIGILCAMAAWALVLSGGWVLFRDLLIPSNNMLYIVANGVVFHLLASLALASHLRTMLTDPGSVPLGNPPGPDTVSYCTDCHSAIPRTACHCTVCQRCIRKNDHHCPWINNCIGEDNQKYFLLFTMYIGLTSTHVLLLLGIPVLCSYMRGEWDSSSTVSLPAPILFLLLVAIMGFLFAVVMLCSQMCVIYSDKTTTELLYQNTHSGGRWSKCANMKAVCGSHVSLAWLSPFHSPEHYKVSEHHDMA

[5] = target: HA-tagged mouse Zdhhc17 (mouse) (UniProt Q80TN5)
[6] = target: T4, HA-tagged mouse Zdhhc7 (mouse) (UniProt Q91WU6)
T4 sequence: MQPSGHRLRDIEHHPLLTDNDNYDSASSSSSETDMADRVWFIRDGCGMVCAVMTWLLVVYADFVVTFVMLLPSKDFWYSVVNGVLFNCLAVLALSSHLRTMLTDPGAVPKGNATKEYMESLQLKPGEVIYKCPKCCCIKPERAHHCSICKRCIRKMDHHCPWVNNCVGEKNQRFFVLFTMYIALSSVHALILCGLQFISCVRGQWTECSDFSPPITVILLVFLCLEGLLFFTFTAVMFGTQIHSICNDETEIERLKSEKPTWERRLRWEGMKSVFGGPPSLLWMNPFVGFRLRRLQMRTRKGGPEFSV

[7] = target: HA-Zdhhc5^RNFR (mouse Zdhhc5 with RNYR changed to RNFR) (mouse) (UniProt Q8VDZ4)

- binding [1]: binds
- binding [2]: no binding
- binding [3]: binds
- binding [4]: no binding
- binding [5]: no binding
- binding [6]: no binding
- binding [7]: binds
Substance: endogenous human golgin A7 (GOLGA7) (from UniProt Q7Z5G4 1-137)
